# From PubChem BioAssay AID1347073 (National Center for Advancing Translational Sciences (NCATS), 2019)
# Among all 45,000 compounds or so, about 200 (0.44%) were called active. Inconclusive results (about 7%) are left out. Calls come from the whole dose curve; as a rule, active = well fitted activation curve with a large enough effect; inconclusive = small, poorly fitted or top-dose-only effect; inactive = no such curve, though single readings can be large or run the other way. This is one part of the list.
# Assay: qHTS of TDP-43 Inhibitors: NCGC Sytravon Library Screen; note: 0% is about no effect; nearly all actives have a fitted effect of over 55% in size
# Conditions: yeast TDP-43 toxicity rescue, BacTiter-Glo growth, 24 h; series mostly up to 46.1 µM; growth rescue (activation): at the top concentration
# How it was run: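 TDP-43-expressing yeast, pregrown in raffinose, seeded at OD600 0.02 in galactose medium with compound for 24 hr at 30 deg C. Growth read by BacTiter-Glo luminescence, so rescue of toxicity appears as activation.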
row,Compound,growth rescue (activation)
1,COC(=O)c1ccc(C(=O)OC)c(NC(=O)CS(=O)(=O)Cc2ccccc2)c1,inactive: 9.45%
2,COc1ccc(NC(=O)c2ccco2)cc1NC(=O)c1c(OC)cccc1OC,inactive: 1.51%
3,CCN(CC)S(=O)(=O)c1ccc(OCC(=O)NCc2ccco2)cc1,inactive: 21.9%
4,CC(C)CCn1c(=O)c2ccccc2n2c(CN3CCOCC3)nnc12,inactive: -8.27%
5,O=C(O)c1ccc(Cl)cc1Nc1nc2cc(Cl)ccc2o1,inactive: 0.946%
6,COc1ccc(-n2c(=S)[nH]c3cc(C(=O)O)ccc3c2=O)cc1,inactive: -7.99%
7,COc1ccc(NC(=O)C2Cc3c(-c4ccco4)ccnc3O2)cc1OC (stereo unspecified),inactive: 10.7%
8,O=c1c(Cl)c(N2CCOCC2)cnn1-c1ncc(C(F)(F)F)cc1Cl,inactive: -8.92%
9,Cc1cccc(C)c1NC(=O)N1CC=C(n2c(=O)[nH]c3ccccc32)CC1,inactive: -5.96%
10,Cn1cccc1-c1cc(C(=O)N/N=C/C=C/c2ccccc2)[nH]n1,inactive: 17.5%
11,COc1ccccc1CNC(=O)C1CCN(c2nnc(C)c3c(C)n(-c4ccccc4)nc23)CC1,inactive: 4.14%
12,COc1ccc(Cl)cc1NC(=O)C(C)N(C)Cc1ccc(C(F)(F)F)cc1 (stereo unspecified),inactive: 1.37%
13,CC1CCc2nc(NC(=O)CN3CCN(c4ccccc4)CC3)sc2C1 (stereo unspecified),inactive: -24.2%
14,Cc1cc(C)c(NC(=O)C2CCC(=O)N2)c(C)c1 (stereo unspecified),inactive: 8.04%
15,COc1ccccc1OCC(=O)Nc1ccc(S(=O)(=O)N2CCCC2)cc1,inactive: 23.6%
16,Cc1cccc(NC(=O)N2CCC(NC(=O)C3CCCCC3)CC2)c1,inactive: 10.5%
17,Cc1cccc(Cc2nnc(CCC(=O)NCc3cn4ccccc4n3)o2)c1,inactive: 0.578%
18,C[C@@H](C(=O)Nc1nc2ccc(F)cc2s1)N1C(=O)C2CC=CCC2C1=O (stereo partly specified),inactive: 14.3%
19,CCN(CC)CCCNC(=O)Cn1cnc2sc(C)c(S(=O)(=O)N3CCC(C)CC3)c2c1=O,inactive: -15.2%
20,COCCNCC(=O)Nc1ccc(OC(F)(F)F)cc1,inactive: 3.71%
21,CCCS(=O)(=O)N1CCCC(C(=O)N2CCCCC2)C1 (stereo unspecified),inactive: 12.6%
22,CCN(CC)S(=O)(=O)c1ccc(C(=O)Nc2cc(C)on2)cc1,inactive: 11.9%

row,Compound,growth rescue (activation)
1,CC(=O)c1cccc(CN2CCN(C3CCCCC3)C(CCO)C2)c1 (stereo unspecified),inactive: 24%
2,CSc1cccc(NC(=S)N(CCC(C)C)C2CCN(C(C)=O)CC2)c1,inactive: 6.15%
3,COc1cc(OC)cc(-c2noc([C@@H]3O[C@H](CO)[C@@H](O)[C@H]3O)n2)c1,inactive: 3.94%
4,O=C(NCCc1nc2ccccc2[nH]1)/C(=C/c1ccc2c(c1)OCO2)NC(=O)c1ccccc1,inactive: 15.4%
5,O=C(Cn1cc(C(=O)c2cccs2)c2ccccc21)Nc1ccc(Br)cc1,inactive: -3.62%
6,C/C=C(\C)c1nnc(NC(=O)c2ccco2)s1,inactive: 30.4%
7,Cc1nc2c(OCc3ccc(C(F)(F)F)cc3)cccn2c1N(C)C(=O)CCC1CCCC1,inactive: -51.2%
8,Cc1ccc(SCC(=O)Nc2ccc3c(c2)C(=O)NC3=O)cc1,inactive: 1.74%
9,Cc1noc(C)c1S(=O)(=O)Nc1ccc(C(=O)N2CCN(c3ccc(Cl)cc3)CC2)cc1,inactive: 12.8%
10,CCCCN(C=O)c1c(CC)nc2ccc(C(=O)N3CCN(S(=O)(=O)CC)CC3)cn12,inactive: 0.0844%
11,Cc1cc(C([O-])=C(C(=S)Nc2ccccc2)[n+]2ccccc2)c(C)n1-c1ccccc1,inactive: -6.21%
12,CC/C(=N\NC(N)=O)c1ccc(OC(F)F)cc1,inactive: -7.05%
13,CCC(=O)c1ccc(OCC(=O)NCc2ccccc2CN2CCCC2)cc1,inactive: 17.1%
14,C=CCOc1ccc(CN(C)CC(O)COc2ccc(CCC(C)=O)cc2)cc1 (stereo unspecified),inactive: -3.07%
15,O=[N+]([O-])c1cc(C(F)(F)F)c(Cl)cc1N1CCN(CCO)CC1,inactive: -7.59%
16,Cc1cc(C)c2c3c(c(-c4ccccc4)n2n1)c(=O)n(C)c(=O)n3C,inactive: 4.8%
17,COc1ccc(Cc2nnc(SCC(=O)Nc3ccc(C)c(C)c3)o2)cc1OC,inactive: -16%
18,N/N=C(\Cc1cscn1)c1ccc(O)cc1O,inactive: 14.9%
19,COc1ccc(C2CC(=O)C3=C(C2)Nc2ccccc2N(C(=O)CCC(=O)O)C3c2ccc(F)cc2)cc1OC (stereo unspecified),inactive: 27.1%
20,Cc1cc(C)nc(-n2nc(C)c(Oc3ccccc3O)c2C)n1,inactive: 5.12%
21,CN(C)CCN(Cc1ccccc1)C(=O)[C@H](Cc1ccccc1)N1C(=O)c2ccccc2C1=O,inactive: 1.98%
22,CC(=O)c1ccc(N2CCN(C(=O)CCCn3c(=O)[nH]c4ccsc4c3=O)CC2)cc1,inactive: 2.39%

row,Compound,growth rescue (activation)
1,O=C(/C(=C/c1cccc(Cl)c1)c1nc2ccccc2[nH]1)c1ccccc1,inactive: 19.2%
2,O=C(c1ccc(S(=O)(=O)c2ccccc2)cc1)N1CCCCCC1,inactive: 5.87%
3,Cc1ccccc1NC(=S)NCc1ccco1,inactive: 14%
4,N#CCCn1cc(/C=N/NC(N)=S)c(-c2ccc(Br)cc2)n1,inactive: 12.5%
5,CCSc1nc(-c2ccccc2)c2cc(Cl)ccc2n1,inactive: -1.07%
6,Cn1c(=O)n(C)c2cc(NC(=O)COc3ccc(Cl)cc3)ccc21,inactive: 37.9%
7,O=C(c1cc(S(=O)(=O)N2CCOCC2)c(Cl)cc1Cl)N1CCN(S(=O)(=O)c2cccc(F)c2)CC1,inactive: -9.48%
8,CC(=O)Nc1cccc(-c2csc(C(O)c3cccc(Cl)c3)n2)c1 (stereo unspecified),inactive: 15.3%
9,CCCCCCn1c(=O)c(C(=O)N/N=C/c2cccc(F)c2)c(O)c2ccccc21,inactive: 0.876%
10,NC(=O)c1ccc(NC(=O)COC(=O)C2COc3ccccc3O2)cc1 (stereo unspecified),inactive: 12.2%
11,COc1ccc(CCNC(=O)C(=O)NCCOc2ccccc2Cl)cc1OC,inactive: -2.11%
12,COc1ccccc1N(CC(=O)NCCC1=CCCCC1)S(=O)(=O)c1ccccc1,inactive: 10.7%
13,COc1ccc(OCCN2CCC(C(=O)NC(c3ccc(Cl)cc3)c3cccnc3)CC2)cc1 (stereo unspecified),inactive: 0.906%
14,Cc1cc(C)cc(COc2ccc3c(C)c(CC(=O)O)c(=O)oc3c2C)c1,inactive: -4.74%
15,CCOc1ccc2cc(S(=O)(=O)N3CCN(C)CC3)ccc2c1,inactive: 20.6%
16,COc1ccc(C2c3[nH]c4ccccc4c3CCN2C(=O)c2ccc(=O)n(C)n2)c(F)c1 (stereo unspecified),inactive: -3.64%
17,O=C(CCCOc1ccccc1)Nc1ccc(S(=O)(=O)Nc2ccccn2)cc1,inactive: 10.3%
18,CC1(C)CC(=O)C(C(=O)/C=C/c2ccco2)C(=O)C1,inactive: 6.01%
19,Cc1ccc(/C=C/C(=O)Nc2cccc3cccnc23)o1,inactive: 25.9%
20,Brc1ccc(C2Nc3cccc4cccc(c34)N2)cc1,inactive: 8.93%
21,Cc1ccc(CN2CCC(C)(Oc3cccc(Cl)c3)C2)cc1 (stereo unspecified),inactive: -6.99%
22,COc1cc(C(=O)Nc2ccc(Cl)c([N+](=O)[O-])c2)cc(OC)c1OC,inactive: -12.4%
